# Over roughly 81,000 sequences, “one-hybrid fitness for binding NBS DNA” has its median near -0.1; the highest 2% begin near 0.36. The list shows a part of the results.
# B1: Caulobacter ParB omega fusion; a variant is named by its letters at X, in order, B8GW30 (parent)
# chain: MESVVVGEPGMSEGRRGLGRGLSALLGEVDAAPAQAPGEQLGGSREAPIEILQRNPDQPRRTFREEDLEDLSNSIREKGVLQPILVRPSPDTAGEYQIVAGERAWRAAQRAGLKTVPIMVRELDDLAVLEIGIIENVQRADLNVLEEALSYKVLMEKFERTQENIAQTIGKSXSHVANXMRLLXLPDEVQSYLVSGELTAXHARAIAAAADPVALAKQIIEGGLSVRETEALARKAPNLSAGKSKGGRPPRVKDTDTQALESDLSSVLGLDVSIDHRGSTGTLTITYATLEQLDDLCNRLTRGI
# Variants of: B1
# Assay: one-hybrid fitness for binding NBS DNA (the Noc-binding site; scaled: cognate 1, non-cognate 0); higher = stronger binding
# Details: with NBS DNA site
# Outline: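 Caulobacter ParB libraries with four specificity codons randomised were screened by bacterial one-hybrid selection in the E. coli USO strain, using a HIS3 reporter whose site lies 19 bp from the promoter. Selection ran for 48 hours at 37°C on M9 lacking histidine, with 0.1 mM IPTG and 5 mM 3-AT. Plasmids were Illumina-sequenced before and after selection, three replicate libraries were pooled, and variants with under 10 reads were dropped. Fitness is the log change in each variant's read ratio to wild type, rescaled against the cognate and non-cognate sites.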
row,Variant,one-hybrid fitness for binding NBS DNA
1,APSG,≤ 0.2
2,ANRG,≤ 0.2
3,DRSN,≤ 0.2
4,TFAC,≤ 0.2
5,DDFR,≤ 0.2
6,WVVM,≤ 0.2
7,INIC,≤ 0.2
8,LYHA,≤ 0.2
9,PHPR,≤ 0.2
10,RHEV,≤ 0.2
11,PPSR,≤ 0.2
12,YMNG,≤ 0.2
13,TKCD,≤ 0.2
14,DASE,≤ 0.2
15,QVHH,≤ 0.2
16,ELAE,≤ 0.2
17,YPNG,≤ 0.2
18,GAPW,≤ 0.2
19,TCWG,≤ 0.2
20,ETTI,≤ 0.2
21,QKLQ,≤ 0.2
22,DASA,≤ 0.2
23,KSLE,≤ 0.2
24,IKEY,≤ 0.2

row,Variant,one-hybrid fitness for binding NBS DNA
1,WHYT,≤ 0.2
2,QVIA,≤ 0.2
3,QKYP,≤ 0.2
4,DGLR,≤ 0.2
5,CLVI,≤ 0.2
6,EEAY,≤ 0.2
7,KTAS,≤ 0.2
8,WWTL,≤ 0.2
9,YRMG,≤ 0.2
10,ARHN,≤ 0.2
11,NMLW,≤ 0.2
12,QCCP,≤ 0.2
13,MYYT,≤ 0.2
14,AQML,≤ 0.2
15,FTPC,≤ 0.2
16,RMVR,0.314
17,KARH,≤ 0.2
18,HCCG,≤ 0.2
19,TKAG,≤ 0.2
20,LRFA,≤ 0.2
21,LVVQ,≤ 0.2
22,CVCV,≤ 0.2
23,RAPC,≤ 0.2
24,VFGM,≤ 0.2

row,Variant,one-hybrid fitness for binding NBS DNA
1,QELI,≤ 0.2
2,GRLI,≤ 0.2
3,PQHE,≤ 0.2
4,QMCT,0.339
5,VNKR,≤ 0.2
6,TVMI,≤ 0.2
7,KMSE,≤ 0.2
8,WLDW,≤ 0.2
9,PHNR,≤ 0.2
10,LLLW,≤ 0.2
11,QDHA,≤ 0.2
12,VIGR,≤ 0.2
13,ELCG,≤ 0.2
14,FPTR,≤ 0.2
15,LWEA,≤ 0.2
16,FWTG,≤ 0.2
17,FTPA,≤ 0.2
18,MADS,≤ 0.2
19,SGAS,≤ 0.2
20,WYRR,0.23
21,VHPC,≤ 0.2
22,TDKC,≤ 0.2
23,KSRK,≤ 0.2
24,HAPR,≤ 0.2

row,Variant,one-hybrid fitness for binding NBS DNA
1,GSIS,≤ 0.2
2,LILL,≤ 0.2
3,HRDI,≤ 0.2
4,TYTY,≤ 0.2
5,KTGM,≤ 0.2
6,RPQR,≤ 0.2
7,TRWY,≤ 0.2
8,CFTC,≤ 0.2
9,FDKN,≤ 0.2
10,CSNG,≤ 0.2
11,CLTG,≤ 0.2
12,SKSV,≤ 0.2
13,ADSV,≤ 0.2
14,RPNC,≤ 0.2
15,VMDE,≤ 0.2
16,QMHY,0.203
17,RFNP,≤ 0.2
18,SSRS,≤ 0.2
19,TSTF,≤ 0.2
20,RFQN,≤ 0.2
21,TNYY,≤ 0.2
22,RNWA,≤ 0.2
23,NQQK,≤ 0.2
24,SNNS,≤ 0.2

row,Variant,one-hybrid fitness for binding NBS DNA
1,NHPI,≤ 0.2
2,SWSN,≤ 0.2
3,RNTL,≤ 0.2
4,RHPD,≤ 0.2
5,HRMT,≤ 0.2
6,NRYV,≤ 0.2
7,VRLN,≤ 0.2
8,VDNP,≤ 0.2
9,GRTC,≤ 0.2
10,RHYN,≤ 0.2
11,EYIR,≤ 0.2
12,PLKF,≤ 0.2
13,FRTG,≤ 0.2
14,ASYF,≤ 0.2
15,FLSV,≤ 0.2
16,PMYQ,≤ 0.2
17,FCKC,≤ 0.2
18,YQSS,≤ 0.2
19,LIMV,≤ 0.2
20,QWQR,0.267
21,ERAC,≤ 0.2
22,KIHT,≤ 0.2
23,ITYT,≤ 0.2
24,ERRK,≤ 0.2

row,Variant,one-hybrid fitness for binding NBS DNA
1,QVQQ,≤ 0.2
2,IKGR,≤ 0.2
3,YDNL,≤ 0.2
4,QLMR,0.437
5,KVTG,≤ 0.2
6,LFCG,≤ 0.2
7,LPGT,≤ 0.2
8,TRPL,≤ 0.2
9,VRTA,≤ 0.2
10,KSIM,≤ 0.2
11,HFRP,≤ 0.2
12,STHF,≤ 0.2
13,SDVR,≤ 0.2
14,DRAA,≤ 0.2
15,NSDL,≤ 0.2
16,ISSS,≤ 0.2
17,KYVN,≤ 0.2
18,WYPC,≤ 0.2
19,SYKV,≤ 0.2
20,IVRC,≤ 0.2
21,LGTT,≤ 0.2
22,NVPA,≤ 0.2
23,LAPS,≤ 0.2
24,YSYN,≤ 0.2

row,Variant,one-hybrid fitness for binding NBS DNA
1,SQPF,≤ 0.2
2,GHSL,≤ 0.2
3,RSPM,≤ 0.2
4,WMMG,≤ 0.2
5,LFWV,≤ 0.2
6,HCPR,≤ 0.2
7,LGMT,≤ 0.2
8,HCET,≤ 0.2
9,TWYY,≤ 0.2
10,LAET,≤ 0.2
11,CDVG,≤ 0.2
12,AYMT,≤ 0.2
13,RHGG,≤ 0.2
14,RCMH,≤ 0.2
15,QECR,≤ 0.2
16,RPHK,≤ 0.2
17,QYMP,≤ 0.2
18,MVYT,≤ 0.2
19,HYSE,≤ 0.2
20,GMHN,≤ 0.2
21,SSCI,≤ 0.2
22,NVWC,≤ 0.2
23,EDPG,≤ 0.2
24,CSTM,≤ 0.2

row,Variant,one-hybrid fitness for binding NBS DNA
1,HWHR,≤ 0.2
2,PAGI,≤ 0.2
3,ETTQ,≤ 0.2
4,VCQV,≤ 0.2
5,ISSR,≤ 0.2
6,PQCS,≤ 0.2
7,VKVC,≤ 0.2
8,NIPT,≤ 0.2
9,IHKR,0.243
10,RCWC,≤ 0.2
11,QTRF,0.446
12,IFAI,≤ 0.2
13,IYIS,≤ 0.2
14,WWTR,≤ 0.2
15,LLQA,≤ 0.2
16,PQSD,≤ 0.2
17,GSNK,≤ 0.2
18,SAQR,≤ 0.2
19,SMFT,≤ 0.2
20,FFHT,≤ 0.2
21,FKLG,≤ 0.2
22,FDGW,≤ 0.2
23,CVGN,≤ 0.2
24,PNCQ,≤ 0.2

row,Variant,one-hybrid fitness for binding NBS DNA
1,KRYM,≤ 0.2
2,CGYV,≤ 0.2
3,LRMR,≤ 0.2
4,VDDV,≤ 0.2
5,STMT,≤ 0.2
6,AFQS,≤ 0.2
7,YSII,≤ 0.2
8,GFNV,≤ 0.2
9,PQWD,≤ 0.2
10,VDGG,≤ 0.2
11,TIMC,≤ 0.2
12,AYRP,≤ 0.2
13,EYTC,≤ 0.2
14,PVSN,≤ 0.2
15,TRSN,≤ 0.2
16,RFCF,≤ 0.2
17,RLVC,≤ 0.2
18,ARNF,≤ 0.2
19,LMFF,≤ 0.2
20,TESH,≤ 0.2
21,AHCG,≤ 0.2
22,CNNN,≤ 0.2
23,KSEL,≤ 0.2
24,NKYT,≤ 0.2

row,Variant,one-hybrid fitness for binding NBS DNA
1,FHTS,≤ 0.2
2,PYYA,≤ 0.2
3,WGCF,≤ 0.2
4,DCAS,≤ 0.2
5,FDPT,≤ 0.2
6,VCWS,≤ 0.2
7,RLWR,0.248
8,RCKK,0.248
9,CLTL,≤ 0.2
10,HFSW,≤ 0.2
11,TTCF,≤ 0.2
12,QMFF,≤ 0.2
13,SKQY,≤ 0.2
14,PMWG,≤ 0.2
15,RVTW,≤ 0.2
16,CRPH,≤ 0.2
17,SPVR,≤ 0.2
18,SAWA,≤ 0.2
19,VTDR,≤ 0.2
20,SHMS,≤ 0.2
21,ACNT,≤ 0.2
22,QIQI,≤ 0.2
23,NACS,≤ 0.2
24,ANVA,≤ 0.2

row,Variant,one-hybrid fitness for binding NBS DNA
1,RGAG,≤ 0.2
2,TLGR,≤ 0.2
3,PHNK,≤ 0.2
4,RPSF,≤ 0.2
5,VMYT,≤ 0.2
6,RGKN,≤ 0.2
7,SSEK,≤ 0.2
8,SYKT,≤ 0.2
9,LLYG,≤ 0.2
10,WNKA,≤ 0.2
11,DMKT,≤ 0.2
12,ACCL,≤ 0.2
13,LQYC,≤ 0.2
14,QAFN,≤ 0.2
15,ASGC,≤ 0.2
16,FTFG,≤ 0.2
17,VNDE,≤ 0.2
18,LYMS,≤ 0.2
19,SWNG,≤ 0.2
20,AELL,≤ 0.2
21,SAPG,≤ 0.2
22,MREW,≤ 0.2
23,IDNC,≤ 0.2
24,HDFR,≤ 0.2

row,Variant,one-hybrid fitness for binding NBS DNA
1,PHML,≤ 0.2
2,LVDW,≤ 0.2
3,NHSK,≤ 0.2
4,LTVD,≤ 0.2
5,QSHR,0.578
6,AHEF,≤ 0.2
7,SLSH,≤ 0.2
8,HCNS,≤ 0.2
9,QYDC,≤ 0.2
10,LVTF,≤ 0.2
11,GVPN,≤ 0.2
12,KVGC,≤ 0.2
13,QSFS,0.256
14,QQNI,0.203
15,PFAS,≤ 0.2
16,THEL,≤ 0.2
17,HNSR,≤ 0.2
18,RDMC,≤ 0.2
19,RCSN,≤ 0.2
20,QICG,≤ 0.2
21,PLLQ,≤ 0.2
22,APER,≤ 0.2
23,DFPT,≤ 0.2
24,YCHY,≤ 0.2

row,Variant,one-hybrid fitness for binding NBS DNA
1,KSLK,≤ 0.2
2,RCHD,≤ 0.2
3,VCCS,≤ 0.2
4,IGVS,≤ 0.2
5,LFGS,≤ 0.2
6,RERG,≤ 0.2
7,LETY,≤ 0.2
8,FIMT,≤ 0.2
9,PVMC,≤ 0.2
10,LWQL,≤ 0.2
11,SMHF,≤ 0.2
12,HAQV,≤ 0.2
13,SVGI,≤ 0.2
14,YRKC,≤ 0.2
15,ILSP,≤ 0.2
16,GEAK,≤ 0.2
17,ASRK,≤ 0.2
18,PMGP,≤ 0.2

# From a collection of fitness landscapes (doi:10.1016/j.celrep.2020.107928)
